From PubChem BioAssay (NCATS)
The shares of active, inactive and inconclusive entries below differ from those in the screen. Potencies of inconclusive entries are doubtful fits and often do not repeat. Calls of active or inactive are those of the source. Unless noted, calls follow the shape of the dose curve; as a rule, active = well fitted inhibition curve with a large enough effect; inconclusive = small, poorly fitted or top-dose-only effect; inactive = no such curve, though single readings can be large or run the other way.

Assays:
[1] = target: Aldehyde dehydrogenase, mitochondrial (Homo sapiens) (UniProt P05091); assay: qHTS for Inhibitors of the Aldehyde Dehydrogenase Family (ALDH2) Confirmatory screens (AID 2061303; active = well fitted inhibition curve with a large enough effect; inconclusive = small, poorly fitted or top-dose-only effect; inactive = no such curve, though single readings can be large or run the other way; title and protocol of this record describe different tests; also: nearly all actives have a fitted effect of over 45% in size); conditions: ALDH inhibition qHTS; activity change, negative = inhibition: at 45.4 µM (top of the series)
[2] = qHTS for Inhibitors of the Aldehyde Dehydrogenase Family (ALDH1A2, ALDH1A3, ALDH2, ALDH3A1) (AID 2061307); conditions: ALDH inhibition qHTS; activity change, negative = inhibition: at 50.3 µM (top of the series) unless noted; also: nearly all actives have a fitted effect of over 50% in size; as to Potency: test system not described further here
[3] = target: Retinaldehyde dehydrogenase 3 (Homo sapiens) (UniProt P47895); assay: qHTS for Inhibitors of the Aldehyde Dehydrogenase Family (ALDH1A3) Confirmatory screens (AID 2061311); conditions: activity change, negative = inhibition: at 46 µM (top of the series); also: nearly all actives have a fitted effect of over 60% in size
[4] = target: Retinal dehydrogenase 2 (Homo sapiens) (UniProt O94788); assay: qHTS for Inhibitors of the Aldehyde Dehydrogenase Family (ALDH1A2) Confirmation screens (AID 2061314); conditions: activity, negative = inhibition: at 45.9 µM (top of the series) unless noted; also: nearly all actives have a fitted effect of over 65% in size
[5] = target: Aldehyde dehydrogenase 1A1 (Homo sapiens) (UniProt P00352); assay: qHTS for Inhibitors of the Aldehyde Dehydrogenase Family (ALDH1A1) Confirmatory screens (AID 2061316); conditions: activity change, negative = inhibition: at 47.3 µM (top of the series); also: nearly all actives have a fitted effect of over 65% in size
Potency is read from the fitted curve at half-maximal effect; tags tell the direction and shape of the fitted curve.

SMILES	Potency [1]	Potency [2]	Potency [3]	Potency [4]	Potency [5]
CSCCC(NS(=O)(=O)c1ccc2c(c1)oc(=O)n2C)C(=O)N1CCN(c2ccc(C(C)=O)cc2)CC1 (stereo not given)	inconclusive: 0.0891 µM [inhibitor, full curve]	inactive	inactive	inactive	inactive
Cc1[nH]cnc1C[C@H]1CCc2c(C)c3ccccc3n2C1=O	inconclusive: 8.96 µM [inhibitor, partial curve]	active: 8.96 µM	active: 3.18 µM	active: 11.3 µM	inconclusive: 2.25 µM [inhibitor, full curve]
COc1ccc(C2=Nn3c(nnc3-c3ccc(OC)c(OC)c3)SC2)c(OC)c1	inactive	inactive	inactive	inconclusive: 25.2 µM [inhibitor, partial curve]	active: 6.34 µM
CC1(C)CC[C@]2(C(=O)O[C@@H]3O[C@H](CO)[C@@H](O)[C@H](O)[C@H]3O)CC[C@]3(C)C(=CCC4[C@@]5(C)C[C@@H](O)[C@H](O)[C@@](C)(CO)C5[C@H](O)C[C@]43C)C2[C@@H]1O (stereo not given in full)	inconclusive: 10.6 µM [inhibitor, partial curve, poor fit]	inconclusive: 8.4 µM [inhibitor, single point]	inconclusive: 8.4 µM [inhibitor, partial curve]	inconclusive: 7.49 µM [inhibitor, partial curve]	inconclusive: 7.49 µM [inhibitor, single point]
FC(F)(F)c1cc(-c2ccc(CNc3nc(-c4ccncc4)nc4ccccc34)cc2)ccn1	active: 8.91 µM	inconclusive: 8.91 µM [inhibitor, full curve, poor fit]	active: 2.52 µM	active: 10 µM	inconclusive: 25.1 µM [inhibitor, partial curve]
